Laboratory results reported in a collection of fitness landscapes (doi:10.1126/science.1257360).
Some of the results follow.

B1: PhoQ; a variant is named by its letters at X, in order, P23837 (parent)
chain: MKKLLRLFFPLSLRVRFLLATAAVVLVLSLAYGMVALIGYSVSFDKTTFRLLRGESNLFYTLAKWENNKLHVELPENIDKQSPTMTLIYDENGQLLWAQRDVPWLMKMIQPDWLKSNGFHEIEADVNDTSLLLSGDHSIQQQLQEVREDDDDAEMTHSVAVNVYPATSRMPKLTIVVVDTIPVELKSSYMVWSWFIYVLSANLLLVIPLLWVAAWWSLRPIEALAKEVRELEEHNRELLNPATTRELTSLVRNLNRLLKSERERYDKYRTTLTDLTHSLKTPLXXLQXXLRSLRSEKMSVSDAEPVMLEQISRISQQIGYYLHRASMRGGTLLSRELHPVAPLLDNLTSALNKVYQRKGVNISLDISPEISFVGEQNDFVEVMGNVLDNACKYCLEFVEISARQTDEHLYIVVEDDGPGIPLSKREVIFDRGQRVDTLRPGQGVGLAVAREITEQYEGKIVAGESMLGGARMEVIFGRQHSAPKDE

Variants of: B1
Assay: enrichment ratio after two sorts for PhoP signalling (ratio (wild type AVST 3.29)); higher = more functional
Conditions: with PhoP (E. coli)

Variant | enrichment ratio
HDGK | ≤ 0.25
EMNP | ≤ 0.25
WSDH | ≤ 0.25
APQS | ≤ 0.25
MLSD | ≤ 0.25
NVKL | ≤ 0.25
WYLT | ≤ 0.25
LFVH | ≤ 0.25
NAAL | ≤ 0.25
YWHQ | ≤ 0.25
HSSF | ≤ 0.25
DEGR | ≤ 0.25
NFGD | ≤ 0.25
MVSA | ≤ 0.25
YGGS | ≤ 0.25
AWCQ | ≤ 0.25
MGGK | ≤ 0.25
SIGC | 7.68
AWCF | ≤ 0.25
QKFW | ≤ 0.25
DAGK | ≤ 0.25
NTAK | ≤ 0.25
GCCE | ≤ 0.25
QKPR | ≤ 0.25
YYSP | ≤ 0.25
MHCG | ≤ 0.25

Variant | enrichment ratio
KHTL | ≤ 0.25
IGRL | ≤ 0.25
RCMP | ≤ 0.25
RMHR | ≤ 0.25
YDCL | ≤ 0.25
QYER | ≤ 0.25
HMSR | ≤ 0.25
YGRI | ≤ 0.25
RAND | ≤ 0.25
PSRM | ≤ 0.25
SHMS | ≤ 0.25
NPVD | ≤ 0.25
WPTK | ≤ 0.25
PAAF | ≤ 0.25
IKYN | ≤ 0.25
IVWC | ≤ 0.25
RMQE | ≤ 0.25
QCNN | ≤ 0.25
QDEM | ≤ 0.25
LQPE | ≤ 0.25
LNQC | ≤ 0.25
WHIN | ≤ 0.25
FDIS | ≤ 0.25
KDSP | ≤ 0.25
YKNG | ≤ 0.25
SSQH | 0.704

Variant | enrichment ratio
GFNA | ≤ 0.25
KRDR | ≤ 0.25
NVMW | ≤ 0.25
PGIL | ≤ 0.25
RFKS | ≤ 0.25
WTFV | ≤ 0.25
EMEI | ≤ 0.25
PRNV | ≤ 0.25
EGDT | ≤ 0.25
NISC | 2.97
SNAN | 6.54
RKMI | ≤ 0.25
TVND | ≤ 0.25
IMYT | ≤ 0.25
MPMT | ≤ 0.25
QSSH | 2.99
SFRG | ≤ 0.25
GNNP | ≤ 0.25
YSMY | ≤ 0.25
TYCY | 2.04
FTGS | ≤ 0.25
TSKY | ≤ 0.25
MEDM | ≤ 0.25
TSCI | 14.8
VFSE | ≤ 0.25
GLRS | ≤ 0.25

Variant | enrichment ratio
EPYI | ≤ 0.25
WHAC | ≤ 0.25
NMLQ | ≤ 0.25
YNGF | ≤ 0.25
TINA | 7.11
DIPT | ≤ 0.25
FRIY | ≤ 0.25
LCFC | ≤ 0.25
TFCM | 0.908
LPKF | ≤ 0.25
MFQG | ≤ 0.25
FEFA | ≤ 0.25
HSDW | ≤ 0.25
SWEF | ≤ 0.25
DSHI | ≤ 0.25
LQFD | ≤ 0.25
VMES | ≤ 0.25
CYLF | ≤ 0.25
VFHV | ≤ 0.25
KTPL | ≤ 0.25
NQTY | ≤ 0.25
LPTS | ≤ 0.25
MHWC | ≤ 0.25
EYLA | ≤ 0.25
DTMW | ≤ 0.25
MFEL | ≤ 0.25

Variant | enrichment ratio
FWQS | ≤ 0.25
SCRG | ≤ 0.25
VRFC | ≤ 0.25
IDQR | ≤ 0.25
LESL | ≤ 0.25
FPDE | ≤ 0.25
EAHL | ≤ 0.25
QSHQ | 22.4
TKGM | 3.37
HVRK | ≤ 0.25
QVAG | ≤ 0.25
YDIY | ≤ 0.25
AWQH | ≤ 0.25
ITVW | ≤ 0.25
NLHP | ≤ 0.25
PDND | ≤ 0.25
HYNR | ≤ 0.25
FATY | ≤ 0.25
GKDV | ≤ 0.25
EYTS | ≤ 0.25
GVCV | 3.13
VEYF | ≤ 0.25
AHIH | ≤ 0.25
AMGP | ≤ 0.25
SGHP | ≤ 0.25
YESR | ≤ 0.25

Variant | enrichment ratio
HFGM | ≤ 0.25
QGGW | ≤ 0.25
SRRM | ≤ 0.25
YSID | ≤ 0.25
PCPW | ≤ 0.25
DMRM | ≤ 0.25
YNNS | ≤ 0.25
HPPY | ≤ 0.25
LYPM | ≤ 0.25
PIEC | ≤ 0.25
SQCD | 11.4
PRSC | ≤ 0.25
FPTE | ≤ 0.25
YMNR | ≤ 0.25
DFDQ | ≤ 0.25
NRPR | ≤ 0.25
DTLR | ≤ 0.25
TPVS | ≤ 0.25
FIAH | ≤ 0.25
PQWM | ≤ 0.25
AIHF | ≤ 0.25
WCMT | ≤ 0.25
IRAY | ≤ 0.25
